Here are results for 57 compounds from ChEMBL document CHEMBL1157539, “Thousands of chemical starting points for antimalarial lead identification” (Nature, 2010).

Whole data set: some 13,000 compounds, median “IFI” near 4, cut for the highest 2% near 17. The list shows a part of the results.

The nature of the assay: GSK_TCMDC: Inhibition Frequency Index (IFI). The number of non-kinase HTS assays where a compound showed > 50 % inhibition, expressed as a percentage of the number of such assays in which the compound was tested (-0 is zero). It is filed as functional.
In turn, `COc1ccc2nccc([C@@H](O)CN3CCC(NS(=O)(=O)c4cc5c(cc4Cl)SCC(=O)N5)CC3)c2c1` yielded an IFI of 0.74%.
With `O=C(Nc1cccc(Cl)c1)N[C@H]1CCN(Cc2ccc(OCCCN3CCCCC3)cc2)C1` the figure was 5.63%; with `CCCOc1cc2c(cc1OCCC)C(C=Cc1ccc(Cl)cc1Cl)=NC(C)C2` (configuration not stated), 19%.
Consider `CC(C)CCNC(=N)Nc1ccc(OCCCCCOc2ccc(NC(=N)NCCC(C)C)cc2)cc1`, for which the IFI amounted to 6.47%.
The figure for `Cc1cccc2nc(-c3ccc(-c4ccc(CN5CCCC(O)C5)cc4)cc3)[nH]c12` (configuration not stated) is 2.82%.
The figure for `CC(C)(C)COC(=O)c1ccc(NC(=O)N[C@@H](Cc2ccc(O)cc2)C(=O)NC2CCN(Cc3ccc(O)cc3)C2)cc1` (some centres not stated) is 3.4%; for `CC(C)C[C@H](NC(=O)c1ccc(OCCN2CCOCC2)cc1)C(=O)N[C@H](/C=N/N1CCN(C)C1=O)CCc1ccccc1` it is 2.75%; for `CCCCCn1c(Sc2ccc(C#N)c([N+](=O)[O-])c2)nnc1-c1cc(OC)cc(OC)c1` it is 6.43%.
In the case of `Cc1ccccc1N1CCN(c2ccc(C(=O)Nc3ccccc3)cc2)CC1`, the IFI is -0%.
The figure for `CN(C)CCNC(=O)c1ccc2c(c1)ncn2-c1cc(OCc2ccccc2C(F)(F)F)c(C(N)=O)s1.CN(C)CCNC(=O)c1ccc2ncn(-c3cc(OCc4ccccc4C(F)(F)F)c(C(N)=O)s3)c2c1` is 3.68%; for `CCc1c(C)nc(-n2nc(C)cc2NC(=O)CC(c2ccccc2)c2ccccc2)[nH]c1=O` it is 9.8%.
With `CN(C(=O)c1nn(-c2ccccn2)c2nccc(-c3cccs3)c12)C1CCCCC1` the figure was 7.14%; with `COc1cc(Nc2nccc(N3CCC(NC(=O)Nc4cccc(C(C)=O)c4)C3)n2)cc(OC)c1OC` (configuration not stated), 4.62%; with `CC(=O)Nc1ccc(C(=O)Nc2cccc(-c3cccc(-c4nc5cc(F)ccc5[nH]4)c3)c2)cn1`, 0.9%.
With `CCc1cn2c3c(cc(C(=O)N[C@@H](Cc4ccccc4)[C@H](O)CNC4CCC4)cc13)N(C)S(=O)(=O)CC2` the figure was 4.41%; with `CCCNC(=O)c1cncc(-c2cccc(CNC3Cc4ccccc4C3)c2)c1`, 4.55%; with `COc1ccc(-c2ccc(NC(=O)c3cccc(Cl)c3)cc2)cc1CN1CCC(O)CC1`, 5.26%.
The compound `CCCN(CCC)C(=O)c1cc(-c2cccc(C)c2)nc2ccccc12` displayed an IFI of 5.88%.
The figure for `CCCCc1ccc(CCNCCCCCCNCCc2ccc(O)c(O)c2)cc1` is 10.3%; for `COc1ccc(C2CC(c3cccs3)=NN2C(=O)COc2cccc3c2CCCC3O)cc1OC` (configuration not stated) it is 0%; for `CS(=O)(=O)N1CC2(CCN(CCC(NC(=O)NCc3ccc(Cl)c(Cl)c3)c3ccc(Cl)c(Cl)c3)CC2)c2ccccc21` (configuration not stated) it is 5.44%.
Regarding `Cc1cccc2nc(-c3ccc(-c4ccc(NC(=O)CN5CCN(C)CC5)cc4)s3)[nH]c12`, the IFI came out at 8.11%.
The figure for `Brc1ccccc1CNc1ccnc(NCCn2ccnc2)n1` is 2.08%.
As to `CC1(C)NC(N)=NC(=N)N1OCCSc1ccccc1`, the IFI was determined as 3.73%.
With `CCC1(CC)NC(N)=NC(=N)N1OCc1ccc(Cl)c(Cl)c1` the figure was 5.97%; with `CCCCc1cc(=O)oc2cc(C)cc(OCc3ccccc3F)c12`, 2.05%; with `Cc1cccc2nc(-c3ccc(-c4cccc(CNCCCN5CCCC5=O)c4)cc3)[nH]c12`, 3.96%.
With `FC(F)(F)c1ccc2[nH]c(-c3cccc(-c4cccc(CNCCN5CCNCC5)c4)c3)nc2c1` the figure was 12.8%.
The figure for `NOCCCCOc1ccc(Cl)cc1` is -0%.
As for `Cc1noc(-c2cccs2)c1C(=O)NCCc1cccc(Cl)c1`, the IFI was -0%.
The figure for `CCNc1cc(C(=O)N[C@@H](Cc2cc(F)cc(F)c2)[C@H](O)CNCc2cccc(C(F)(F)F)c2)cc(N2CCCCS2(=O)=O)c1` is 5.67%.
The figure for `COc1cc(CN=C(S)NN=C(C)c2ccccn2)cc(OC)c1OC` is 5.97%.
With `CC(=O)Nc1ncc(C(=O)Nc2cccc(-c3ccc(-c4nc5ccccc5[nH]4)cc3)c2)s1` the figure was 6.48%; with `COc1ccc(NC(=O)[C@H](CC(C)C)Nc2cc(C)nc(NCCOc3ccccc3)n2)cc1`, 11.6%; with `COc1ccc2nccc([C@@H](O)CN3CCC(NCc4ccc5c(c4)nnn5C(C)C)CC3)c2c1`, 2.14%.
Compound `Fc1cc(Cl)ccc1Nc1ccnc2cc(I)ccc12` returned an IFI of 2.86%.
In the case of `CC1(C)NC(N)=NC(=N)N1OCCCOc1ccccc1Cl`, the IFI was 4.32%.
The figure for `Cc1cc(CNCCCCCCNCc2ccc(Cl)cc2)ccc1O` is 1.49%.
With `NCc1cccc(-c2ccc(CNC3CCN(Cc4ccccc4)CC3)cc2)c1` the figure was 2.88%; with `CCCN1CCN(c2ccc(NS(=O)(=O)c3ccc(C(=O)Nc4ccc(Cl)cc4)cc3)cc2)CC1`, 1.69%; with `Cc1ccc(C)c(S(=O)(=O)NCC2CCN(Cc3ccc(O)cc3)CC2)c1`, 0%.
The figure for `CN1CC[C@@H](Oc2cc(Nc3nc(-c4ccc(C#N)cc4)cs3)ccc2Cl)C1` is 8.87%; for `O=C(Nc1ccc(OC2CCN(Cc3ccccc3)C2)c(Cl)c1)c1ccsc1` (configuration not stated) it is 7.69%; for `O=C(Nc1cccc(C(F)(F)F)c1)c1cccc(S(=O)(=O)NCC2CCCN(CC3CCCCC3)C2)c1` (configuration not stated) it is 7.14%.
`CC(C)c1ccc(C(NC(=O)C2CCCCC2)c2ccc3cccnc3c2O)cc1` (configuration not stated) gave an IFI of 2.07%.
In turn, `CC1CCC(C[C@@H](C(=O)N[C@H](C(=O)Nc2nccs2)[C@@H](C)O)[C@H](CCC(F)(F)F)N(O)C=O)CC1` (some centres not stated) yielded an IFI of 0.78%.
The figure for `Cc1ccc(NC(=O)c2ccc(CN3CCCN(Cc4cccc(C#N)c4)CC3)cc2)cc1F` is 11.6%; for `COc1ccc2nc3cc(Cl)ccc3c(NCCCCNc3c4ccc(Cl)cc4nc4ccc(OC)cc34)c2c1` it is 2.94%.
The figure for `CCOC(=O)c1nc2ccc(SC3CCCCC3)cn2c1Br` is 1.44%.
With `N#Cc1ccc(C(=O)Nc2cccc(-c3ccc(CN4CCCC4)cc3)c2)cc1`, the IFI came to 3.85%.
With `NC(=O)c1cccc(Nc2nccc(Nc3ccc(Oc4cccc(Cl)c4)c(Cl)c3)n2)c1` the figure was 5.11%; with `CCCCCC(=O)NCC(NCCCNc1cc(=O)c2ccccc2[nH]1)c1cc(Br)cc(Br)c1` (configuration not stated), 2.34%.
The figure for `CC(=O)Nc1nc(C(=O)Nc2cccc(-c3ccc(-c4nc5cccc(C)c5[nH]4)s3)c2)cs1` is 1.75%.
In the case of `COc1ccc(-c2cccc(NC(=O)c3cccc(Cl)c3)c2)cc1CN1CCN(C)CC1`, the IFI is 8.74%.
With `CCSc1ccccc1COc1c(C)nc(N)nc1N` the figure was 1.4%; with `CCN(CC)CCN(Cc1ccc(-c2ccc(C(F)(F)F)cc2)cc1)C(=O)Cn1c(CCc2ccc(F)c(C#N)c2)nc(=O)c2ccccc21`, 6.21%; with `O=C(NCC1CC1)C1CCN(C(c2ccc(Cl)cc2)c2ccc(Cl)cc2)CC1`, 3.4%.
